Data as given in patent US20100021460A1 (Genentech, published 2010).

B1: non-depleting anti-CD4 antibody Variant D (antibody, human IgG1, kappa, N297A)
light: DIVMTQSPDSLAVSLGERATINCKASQSVDYDGDSYMNWYQQKPGQPPKLLIYVASNLESGVPDRFSGSGSGTDFTLTISSLQAEDVAVYYCQQSLQDPPTFGGGTKVEIKRTVAAPSVFIFPPSDEQLKSGTASVVCLLNNFYPREAKVQWKVDNALQSGNSQESVTEQDSKDSTYSLSSTLTLSKADYEKHKVYACEVTHQGLSSPVTKSFNRGEC
heavy: QVQLVQSGAEVKKPGASVKVSCKASGYTFTAYVISWVRQAPGQGLEWMGEIYPGSGSSYYNEKFKGRVTMTRDTSTSTVYMELSSLRSEDTAVYYCARSGDGSRFVYWGQGTLVTVSS[human IgG1 constant region with N297A N434H (EU numbers) omitted]
notes: Human IgG1 constant regions; N297A (aglycosylated) and N434H; Iodinated (125I) tracer plus unlabeled antibody in the Jurkat assay; also called LC1/HC4
B2: non-depleting anti-CD4 antibody Variant B (antibody, human IgG1, kappa, N297A)
light: B1 light
heavy: QVQLVQSGAEVKKPGASVKVSCKASGYTFTAYVISWVRQAPGQGLEWMGEIYPGSGSSYYNEKFKGRVTMTRDTSTSTVYMELSSLRSEDTAVYYCARSGDGSRFVYWGQGTLVTVSS[human IgG1 constant region with changes omitted]
notes: Humanized, human IgG1 constant regions; N297A (aglycosylated), wild-type N434; Iodinated (125I) tracer plus unlabeled antibody in the Jurkat assay; also called anti-CD4 Variant B; LC1/HC2

Legend:
[1] = target: T1, human FcγRIA extracellular domain-Gly/6×His/GST fusion (human, UniProt P12314 16-292); assay: ELISA, receptor captured by anti-GST, monomeric antibody
T1 construct: extracellular domain; Captured on anti-GST coated plates; also called FcγR1; not shown: C-terminal Gly/6×His/glutathione S-transferase (GST) tag
Experimental: (§1) Plates were coated with an anti-GST antibody (Genentech) and blocked with bovine serum albumin (BSA). After washing with phosphate-buffered saline (PBS) containing 0.05% Tween-20 with an ELx405™ plate washer (Biotek Instruments; Winooski, Vt.), Fcγ receptors were added to the plate at 25 ng/well and incubated at room temperature for 1 hour. After the plates were washed, serial dilutions of test antibodies were added as multimeric complexes and the plates were incubated at room temperature for 2 hours.
For the high-affinity receptor (FcγRIA), the antibodies were assayed as monomers without cross-linking. The rest of the assay procedures were the same as those for low-affinity receptors.

[2] = target: T2, soluble histidine-tagged human FcRn (human, UniProt P55899 part only); assay: BIAcore solution competition at pH 6, reference Variant B
T2 construct: Soluble, expressed transiently in CHO cells, nickel-column purified, histidine tag kept
Experimental: (§2) The IC₅₀s of Variant B and Variant D binding to human and baboon FcRn were measured using the BIAcore 3000 surface plasmon resonance system (BIAcore Inc, Piscataway, N.J.; Lofas and Johnsson 1990; Karlsson et al. 1991). The amine-coupling method used for immobilization of a control monoclonal antibody which contains human IgG1 Fc similar to that of Variant D but lacking the modifications of Variant D (Control Antibody) onto a carboxymethylated dextran biosensor chip (Sensor Chip CM5, BIAcore) was essentially as described in the manufacturer's instructions (BIAcore 1991; Johnsson et al. 1991). Briefly, the biosensor chip was activated using N-ethyl-N′-(3-dimethylaminopropyl) carbodiimide hydrochloride (EDC HCl) mixed with N-hydroxysuccinimide (NHS). Control Antibody, diluted to 12 μg/ml in 10 mM sodium acetate, pH 4, was injected over the chip to give an immobilized antibody signal of approximately 3000 RUs. Unreacted succinimide groups were then blocked with an injection of 1 M ethanolamine, giving a final density of approximately 2000 RUs of Control Antibody.
(§3) Soluble histidine-tagged human FcRn (SEQ ID NO: 13) and soluble histidine-tagged baboon FcRn (SEQ ID NO: 14) were produced from transient expression in CHO cells using standard methods well known to one skilled in the art. […]

[3] = target: T3, soluble histidine-tagged baboon FcRn (baboon, UniProt Q8SPV9 24-297, limits assumed); assay: as above
T3 construct: Soluble, expressed transiently in CHO cells, nickel-column purified, histidine tag kept
T3 chain: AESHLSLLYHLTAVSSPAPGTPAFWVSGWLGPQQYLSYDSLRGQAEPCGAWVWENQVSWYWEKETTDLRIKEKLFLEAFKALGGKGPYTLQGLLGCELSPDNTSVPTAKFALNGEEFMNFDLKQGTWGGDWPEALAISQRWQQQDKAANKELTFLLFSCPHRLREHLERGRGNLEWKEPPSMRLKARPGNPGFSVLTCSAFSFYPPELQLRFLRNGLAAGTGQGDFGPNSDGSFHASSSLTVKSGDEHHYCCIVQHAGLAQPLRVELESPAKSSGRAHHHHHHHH
Experimental: as §2, §3

[4] = target: T4, human FcγRIIB extracellular domain-Gly/6×His/GST fusion (human, UniProt P31994 43-217); assay: ELISA, receptor captured by anti-GST, antibody as multimers
T4 construct: extracellular domain; Captured on anti-GST coated plates; also called CD32B; not shown: C-terminal Gly/6×His/glutathione S-transferase (GST) tag
T4 sequence (looked up): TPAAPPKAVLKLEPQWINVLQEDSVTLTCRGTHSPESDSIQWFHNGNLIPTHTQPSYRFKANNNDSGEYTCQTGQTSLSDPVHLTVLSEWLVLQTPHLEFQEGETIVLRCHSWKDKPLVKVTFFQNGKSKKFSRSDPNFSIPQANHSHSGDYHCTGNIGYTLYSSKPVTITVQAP
Experimental: (§4) The binding affinities of various antibodies to FcγRIA, FcγRIIA, FcγRIIB, and two allotypes of FcγRIIIA (F158 and V158) were measured in ELISA-based ligand-binding assays using the respective recombinant Fcγ receptors. Purified human Fcγ receptors were expressed as fusion proteins containing the extracellular domain of the receptor γ chain linked to a Gly/6×His/glutathione S-transferase (GST) polypeptide tag at the C-terminus. The binding affinities of antibodies to those human Fcγ receptors were assayed as follows.
as §1

[5] = target: T5, human FcγRIIIA (F158 allotype) extracellular domain-Gly/6×His/GST fusion (human, UniProt P08637 part only); assay: as above
T5 construct: extracellular domain; Captured on anti-GST coated plates; also called CD16 F-158; not shown: C-terminal Gly/6×His/glutathione S-transferase (GST) tag
Experimental: as §4, §1

[6] = target: T6, human FcγRIIIA (V158 allotype) extracellular domain-Gly/6×His/GST fusion (human, UniProt P08637 part only); assay: as above
T6 construct: extracellular domain; Captured on anti-GST coated plates; Residue 158 is counted on the mature receptor, not on the precursor entry; also called CD16 V-158; not shown: C-terminal Gly/6×His/glutathione S-transferase (GST) tag
Experimental: as §4, §1

human CD4 [7] = target: T7, human CD4 (human, UniProt P01730); assay: flow cytometry on primary human CD4+ T cells, mean of four experiments
T7 construct: whole, on cells; primary human CD4+ T cells; T cells of RA patients in vivo; also called CD4 on Jurkat cells; CD4 on human CD4+ T cells
Experimental: To characterize binding of Variant D to primary human CD4+ T cells and to determine its cross-reactivity to CD4 from non-human primate species, saturation binding titration experiments were performed on cells from humans, baboons, cynomolgus monkeys, and rhesus monkeys. Binding was analyzed and quantified by flow cytometry as described below.
Fresh human blood from a healthy human donor was obtained. Non-human primate blood was obtained from Southwest Foundation for Biomedical Research in San Antonio, Tex. (i.e., baboon, cynomolgus monkey, and rhesus monkey). Each sample of blood was diluted with an equivalent volume of PBS, overlaid on Ficoll (GE Healthcare; Princeton, N.J.), then centrifuged to isolate mononuclear cells. […] Cells were then incubated with Fcγ-specific human IgG PE-conjugated antibody (Jackson ImmunoResearch Laboratories, Inc.; West Grove, Pa.) at 20 μg/mL for another 30 minutes on ice to detect the quantity of anti-CD4 antibody bound. […] Samples were run on a FACSCalibur flow cytometer (BD Biosciences) and analyzed using Flowjo software. The mean fluorescence intensity (MFI) of CD4 staining was plotted as a function of the concentration of Variant D present during binding. Half-maximal effective concentration (EC50) values were calculated from the binding curves using a four-parameter curve-fitting algorithm (KaleidaGraph™ software).

human CD4 [8] = target: T7, human CD4; assay: equilibrium binding on CD4+ Jurkat cells, 125I-antibody displaced by unlabeled antibody, 4 h at 4 C
Experimental: The Jurkat human T-cell leukemic line expresses CD4 (see FIG. 4A) and was utilized to determine the affinity of Variant B and Variant D for CD4 by equilibrium binding analysis. Variant B is similar to Variant D except that Variant B carries the normal (wild-type) amino acid at position 434, N434 (see Table 2). Equilibrium binding measurements were carried out as follows.
CD4+ Jurkat cells were cultured in growth media, which contained RPMI 1640 media supplemented with 10% fetal bovine serum (FBS), 2 mM L-glutamine, 1× penicillin-streptomycin, at 37° C. in 5% CO₂. Cells were washed with binding buffer (50:50 DMEM/F12 with 2% FBS and 50 mM Hepes, pH 7.2) and were placed into 96-well plates at approximately 2.3×10⁵ cells/well in 0.2 mL of binding buffer. The non-depleting anti-CD4 antibody variants (Variant B and Variant D) were iodinated using the Iodogen method. […] The filters were counted on a Wallac Wizard 1470 gamma counter (Perkin Elmer Life and Analytical Sciences Inc.; Wellesley, Mass.). The binding data were evaluated using NewLigand software (Genentech), which uses the non-linear regression fitting algorithm of Munson and Rodbard, Anal. Biochem. 107:220-39, 1980, to determine the binding affinity of the antibody.

[9] = target: T2, soluble histidine-tagged human FcRn; assay: BIAcore solution competition, 100 nM FcRn preincubated with antibody, free FcRn captured on immobilized Control Antibody, pH 6.0
Text: (§5) Soluble histidine-tagged human FcRn (SEQ ID NO: 13) and soluble histidine-tagged baboon FcRn (SEQ ID NO: 14) were produced from transient expression in CHO cells using standard methods well known to one skilled in the art. Each of the histidine-tagged FcRn polypeptides was purified using nickel column chromatography according to methods well known to one skilled in the art. The histidine tags were not removed from the FcRn polypeptides following purification. For simplicity, the histidine-tagged FcRn polypeptides are subsequently referred to as “FcRn” in the discussion of assay methodology and results below but it is understood that the histidine tags were still attached to the polypeptides. Each of Variant B and Variant D were serially diluted in running buffer (PBS containing 0.05% Tween-20 pH 6) and incubated at room temperature with a constant (100 nM) concentration of FcRn for 30 min before injection. […]
(§6) Concentrations of free FcRn were plotted against the log of antibody concentrations in GraphPad Prism. The IC₅₀ of binding was determined by fitting the data to a 4 parameter curve (Y=m4+(m3−m4)/(1+10̂((log IC50−X)*Hillslope)) where m3 is the maximal signal, m4 is the minimal signal and the Hillslope is a slope constant. Experiments were repeated at least three times, and the IC₅₀s were reported with standard error of the mean (SEM).

[10] = target: T3, soluble histidine-tagged baboon FcRn; assay: as above
Text: as §5, §6

T1 sequence (P12314 16-292): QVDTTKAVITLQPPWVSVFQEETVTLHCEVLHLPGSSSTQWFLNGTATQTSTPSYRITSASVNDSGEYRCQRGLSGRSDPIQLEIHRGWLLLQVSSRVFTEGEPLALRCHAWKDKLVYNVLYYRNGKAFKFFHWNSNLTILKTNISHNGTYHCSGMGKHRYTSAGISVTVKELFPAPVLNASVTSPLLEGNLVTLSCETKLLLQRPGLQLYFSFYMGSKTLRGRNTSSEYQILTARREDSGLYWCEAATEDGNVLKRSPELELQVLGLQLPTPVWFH

Binder | binding result [1] | fold tighter binding than Variant B [2] | fold tighter binding than Variant B [3] | binding result [4] | binding result [5] | binding result [6] | EC50 (human CD4 [7]) | Kd (human CD4 [8]) | IC50 [9] | IC50 [10]
B1 | binds | ~3.5 fold | ~3.5 fold | binds | binds | binds | 170 pM | 65 pM | 144000 pM | 160000 pM
B2 |  |  |  |  |  |  |  | 62 pM |  | 
